# From the supplement of paper PMC4166925
# ± gives the standard deviation of the averaged measurements. In all, about 33,000 sequences were measured (“E-score (dimensionless, -0.5 to 0.5)”: median about -0.046, highest 2% from about 0.36 on). Some of the results follow.
# System: T1, SpTbr T-box DNA-binding domain (GST fusion)
# T1 sequence: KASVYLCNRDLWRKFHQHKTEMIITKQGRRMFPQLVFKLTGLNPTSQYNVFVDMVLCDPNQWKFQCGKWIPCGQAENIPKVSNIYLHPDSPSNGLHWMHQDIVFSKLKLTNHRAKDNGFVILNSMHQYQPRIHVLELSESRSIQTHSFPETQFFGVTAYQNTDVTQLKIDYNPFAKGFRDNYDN
# Experiment: PBM E-score of 8-mer (E-score (dimensionless, -0.5 to 0.5)); Tbr is Tbrain of the sea star Patiria miniata (Pm) or the sea urchin Strongylocentrotus purpuratus (Sp); higher = stronger binding preference; most listed sequences are background and not binding sites
# Details: the construct has about 5 more residues each side
# In short: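 Expression of GST-fused Tbr T-box DNA-binding domains, each holding the full T-box plus roughly five flanking residues, was carried out in BL21 E. coli at 20 °C, with purification by glutathione affinity chromatography. Universal Agilent arrays made double-stranded by primer extension were incubated with the protein at 200 nM in PBS (pH 7.5), then scanned and quantified. All ungapped 8-mers were scored from probe intensities, and each received an enrichment E-score from the Universal PBM Analysis Suite, averaged over duplicate arrays.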
row,Sequence,PBM E-score of 8-mer
1,GACATAGC,-0.224 ± 0.02
2,ATCGGGGC,-0.0619 ± 0.015
3,ACCAAGGA,-0.0953 ± 0.013
4,AATAGACT,-0.193 ± 0.023
5,ACTCTCCC,0.0826 ± 0.086
6,ATAACCCC,-0.167 ± 0.056
7,CAGTACTA,-0.174 ± 0.021
8,CCGTGTAC,-0.086 ± 0.054
9,GGGTAGGA,-0.292 ± 0.036
10,CTAAAGGA,-0.147 ± 0.0086
11,CCGAACGG,-0.251 ± 0.059
12,CTCCACAA,0.136 ± 0.0093
13,GCCCAAAA,-0.07691 ± 0.00033
14,ATTTTTTG,-0.0685 ± 0.073
15,AGTGGCAA,0.305 ± 0.0085
16,ATAAGTCG,0.0426 ± 0.1
17,AACCCTCC,-0.0929 ± 0.046
18,AACGTTGG,0.0328 ± 0.027
19,AGGAGACT,-0.108 ± 0.032
20,CACGCTCA,0.161 ± 0.041
21,CGTGCGCC,-0.0837 ± 0.052
22,ATGTGCGA,0.47362 ± 0.00026
23,GCGGATAC,-0.264 ± 0.029
24,ATTGGTCC,-0.197 ± 0.039
25,CACCAAGA,0.129 ± 0.058

row,Sequence,PBM E-score of 8-mer
1,ATGGCGGA,-0.214 ± 0.027
2,GAAATTTC,-0.116 ± 0.12
3,AGGACCGC,-0.228 ± 0.1
4,GAGTACTA,-0.3652 ± 0.0036
5,AGCTATAG,-0.0923 ± 0.041
6,CGACTACA,-0.13 ± 0.0069
7,GGGGGTAC,-0.117 ± 0.082
8,AGCAAAGA,-0.0779 ± 0.07
9,CAGCTCGC,0.187 ± 0.018
10,AGTTGAAT,0.00375 ± 0.031
11,AAAGAGCT,-0.035 ± 0.04
12,TCCACCAA,-0.0739 ± 0.048
13,AATTTCTC,-0.0542 ± 0.12
14,ATGGACTG,-0.21 ± 0.023
15,CTGAAAGC,-0.193 ± 0.033
16,GCAAGCGA,-0.0199 ± 0.027
17,CGACAACC,0.264 ± 0.045
18,AAGGGATA,-0.104 ± 0.029
19,AACCAAGA,-0.26 ± 0.0032
20,CTGGCTAC,-0.184 ± 0.0044
21,CGGGCTGC,-0.132 ± 0.11
22,GATTTATA,-0.0777 ± 0.041
23,AACCCTGC,0.0496 ± 0.055
24,ACAATCCT,0.0327 ± 0.08
25,CACATATG,0.323 ± 0.02

row,Sequence,PBM E-score of 8-mer
1,ATGTGTCA,0.4671 ± 0.00078
2,CGTAGCTA,-0.129 ± 0.022
3,AATAATCC,-0.257 ± 0.028
4,GTACCTAA,-0.251 ± 0.012
5,ACCCGCCC,-0.0563 ± 0.028
6,AACTCTGG,0.00764 ± 0.0044
7,ATTGCTGG,-0.0842 ± 0.02
8,ACGTCTTG,-0.0206 ± 0.0054
9,TATCCACA,0.0934 ± 0.019
10,CTATGGAC,-0.104 ± 0.077
11,AGTTTCCA,-0.0124 ± 0.047
12,GTTCCTCA,-0.0698 ± 0.064
13,AGCAATAG,0.00507 ± 0.035
14,AACATACA,-0.101 ± 0.0086
15,CGGCTTAA,-0.0537 ± 0.021
16,ACCGTGCG,0.127 ± 0.015
17,GTAGGCAA,0.0709 ± 0.015
18,AGAGGCTA,-0.0205 ± 0.018
19,ACGTCGTG,0.0557 ± 0.0025
20,CCCCACAG,-0.0676 ± 0.036
21,GATCTACC,-0.162 ± 0.033
22,CTTAGAAG,-0.118 ± 0.016
23,AACGACTT,0.211 ± 0.018
24,AGCGTATG,-0.218 ± 0.088
25,GACTCCTA,-0.27 ± 0.052

row,Sequence,PBM E-score of 8-mer
1,AGCATCGC,0.0181 ± 0.026
2,AAACGTTG,-0.208 ± 0.035
3,CCCGGGTA,-0.108 ± 0.036
4,CATTCTAC,0.0187 ± 0.11
5,CAGTCATG,-0.0975 ± 0.045
6,CAATACTA,-0.0717 ± 0.077
7,CGATACCA,0.055 ± 0.054
8,ACATTCTA,-0.15 ± 0.025
9,AACCGTGC,0.0724 ± 0.018
10,CCAATAGA,-0.1 ± 0.083
11,CGGTAGCC,-0.215 ± 0.03
12,CTGACTAA,-0.0557 ± 0.041
13,GGGTATAA,-0.132 ± 0.008
14,CTGTATCA,-0.1466 ± 0.00092
15,GAAGAATC,0.0567 ± 0.027
16,CACTCTGA,0.0469 ± 0.044
17,CAGTTCGA,-0.0879 ± 0.061
18,ATTGTTGG,-0.0472 ± 0.037
19,AGTGGGAA,0.217 ± 0.044
20,GACTACCA,-0.113 ± 0.086
21,CCGGGTAA,-0.175 ± 0.034
22,GAGGCTGC,-0.0285 ± 0.077
23,CGAGCCCC,0.0228 ± 0.043
24,AGCACTAG,-0.2417 ± 0.0019
25,GTTCATCA,0.0211 ± 0.0087

row,Sequence,PBM E-score of 8-mer
1,CTGATATA,-0.133 ± 0.0076
2,GCAGATAC,-0.188 ± 0.01
3,CTGCGAAA,0.342 ± 0.036
4,CGATCACC,0.034 ± 0.021
5,ACGACTCT,-0.0322 ± 0.0043
6,AGCTGACT,-0.204 ± 0.031
7,CTGTAGTA,-0.17 ± 0.027
8,CATCTGGA,-0.0803 ± 0.042
9,CCGGCGTA,-0.0982 ± 0.0024
10,GATTTTTA,-0.188 ± 0.0038
11,CCTTCGAG,0.07531 ± 0.00073
12,AACGTGCA,0.0678 ± 0.024
13,GATAGCCC,-0.217 ± 0.0042
14,ACGCAACT,0.0194 ± 0.043
15,CTTGGATC,-0.102 ± 0.083
16,CGGTGGAA,-0.0405 ± 0.033
17,GAAGATAA,-0.0122 ± 0.087
18,CAAGTCAG,-0.139 ± 0.091
19,AACTTAAG,-0.0796 ± 0.11
20,AGGGAAAG,-0.11 ± 0.059
21,ATGGAGTC,-0.1693 ± 0.00018
22,GAACTGCC,-0.146 ± 0.024
23,GACCGATA,-0.15 ± 0.1
24,ATCTGCGA,0.183 ± 0.034
25,CCCGATCG,-0.127 ± 0.018

row,Sequence,PBM E-score of 8-mer
1,GATCCGCC,-0.161 ± 0.076
2,ACTGTGGA,-0.0283 ± 0.019
3,AGGGAGGA,-0.385 ± 0.054
4,ATTCCCTG,-0.161 ± 0.059
5,CGCCTGAC,0.111 ± 0.0091
6,GTCGAGCA,0.0707 ± 0.028
7,GTAGCTAC,-0.408 ± 0.089
8,CCGCCTAG,-0.135 ± 0.12
9,AATGGTCC,-0.328 ± 0.064
10,AGCAGTAG,-0.115 ± 0.056
11,AAGCGCAA,0.113 ± 0.0027
12,AGACCAGA,-0.239 ± 0.031
13,ATTGCTAA,0.111 ± 0.073
14,CACATTAG,0.2308 ± 0.00053
15,CGGAACTA,-0.186 ± 0.047
16,AGACGACT,-0.202 ± 0.093
17,GGATATCC,-0.122 ± 0.057
18,GAATATCC,-0.102 ± 0.017
19,CGTTAGAA,0.0251 ± 0.033
20,ACTTCCTA,0.0196 ± 0.063
21,ACACTAAA,0.228 ± 0.0039
22,AGCGCGTC,0.182 ± 0.021
23,GCAGCACC,0.252 ± 0.0061
24,CCATGTCC,-0.383 ± 0.012
25,CTGGGTCC,-0.0833 ± 0.033

row,Sequence,PBM E-score of 8-mer
1,AATGTCGT,0.0328 ± 0.037
2,GGCCGCAA,0.0133 ± 0.066
3,CGAACGTA,0.00396 ± 0.01
4,ACGGACCC,-0.132 ± 0.016
5,AGAGACAC,0.132 ± 0.017
6,ACGTAAAT,0.021 ± 0.037
7,GCGAACCC,0.257 ± 0.028
8,AGAAAACT,-0.226 ± 0.016
9,AGCCCGGA,-0.363 ± 0.051
10,CATATTGA,0.0115 ± 0.11
11,CAAACGCA,-0.0586 ± 0.061
12,CATTGGAG,-0.0737 ± 0.091
13,CGGTGCTA,0.258 ± 0.035
14,CATCTAAC,0.048 ± 0.04
15,AATGACTC,0.0605 ± 0.065
16,GTAACTAA,-0.299 ± 0.025
17,CGGGTGCA,0.157 ± 0.062
18,CAGTGGGC,-0.126 ± 0.0071
19,CAATGGCC,-0.1163 ± 0.00099
20,GACATCAC,0.172 ± 0.0072
21,CCCCTGCA,-0.101 ± 0.04
22,ATACATTC,-0.112 ± 0.12
